# The other results are listed elsewhere or left out.
# B1: ABA (Agaricus bisporus), Q00022 (protein)
# chain: MTYTISIRVYQTTPKGFFRPVERTNWKYANGGTWDEVRGEYVLTMGGSGTSGSLRFVSSDTDESFVATFGVHNYKRWCDIVTNLTNEQTALVINQEYYGVPIRDQARENQLTSYNVANAKGRRFAIEYTVTEGDNLKANLIIG
# Tests used:
# Test in all cases: glycan array binding signal (z-score within array); higher = stronger binding
# Conditions in all cases: glycan notation: IUPAC condensed, linker removed
# Fuc(a1-2)Gal = molecular target: Fuc(a1-2)Gal
# Procedure, shortened: (§1)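 The binding signal is a Z-score computed within each array and averaged over linkers. Arrays of the same protein sequence at different concentrations or buffers were also averaged together. Data originate from 3228 arrays in the Consortium for Functional Glycomics database, kept only where the protein sequence was available.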
# Fuc(a1-2)Gal(b1-3)GalNAc = molecular target: Fuc(a1-2)Gal(b1-3)GalNAc
# Procedure, shortened: as §1
# [1] = molecular target: Fuc(a1-2)Gal(b1-3)GalNAc(a1-3)[Fuc(a1-2)]Gal(b1-4)Glc
# Procedure, shortened: as §1
# [2] = molecular target: Fuc(a1-2)Gal(b1-3)GalNAc(a1-3)[Fuc(a1-2)]Gal(b1-4)GlcNAc
# Procedure, shortened: as §1
# [3] = molecular target: Fuc(a1-2)Gal(b1-3)GalNAc(b1-3)Gal
# Procedure, shortened: as §1
# [4] = molecular target: Fuc(a1-2)Gal(b1-3)GalNAc(b1-3)Gal(a1-4)Gal(b1-4)Glc
# Procedure, shortened: as §1
# [5] = molecular target: Fuc(a1-2)Gal(b1-3)GalNAc(b1-4)[Neu5Ac(a2-3)]Gal(b1-4)Glc
# Procedure, shortened: as §1
# Fuc(a1-2)Gal(b1-3)GlcNAc = molecular target: Fuc(a1-2)Gal(b1-3)GlcNAc
# Procedure, shortened: as §1
# [6] = molecular target: Fuc(a1-2)Gal(b1-3)GlcNAc(b1-2)Man(a1-3)[Fuc(a1-2)Gal(b1-3)GlcNAc(b1-2)Man(a1-6)]Man(b1-4)GlcNAc(b1-4)GlcNAc
# Procedure, shortened: as §1
# [7] = molecular target: Fuc(a1-2)Gal(b1-3)GlcNAc(b1-2)Man(a1-3)[Fuc(a1-2)Gal(b1-3)GlcNAc(b1-2)Man(a1-6)]Man(b1-4)GlcNAc(b1-4)[Fuc(a1-6)]GlcNAc
# Procedure, shortened: as §1
# [8] = molecular target: Fuc(a1-2)Gal(b1-3)GlcNAc(b1-3)Gal(b1-4)Glc
# Procedure, shortened: as §1
# [9] = molecular target: Fuc(a1-2)Gal(b1-3)GlcNAc(b1-3)GalNAc
# Procedure, shortened: as §1
# [10] = molecular target: Fuc(a1-2)Gal(b1-3)GlcNAc(b1-3)[Fuc(a1-2)Gal(b1-3)GlcNAc(b1-6)]GalNAc
# Procedure, shortened: as §1
# [11] = molecular target: Fuc(a1-2)Gal(b1-3)GlcNAc(b1-3)[Gal(b1-4)GlcNAc(b1-6)]Gal(b1-4)Glc
# Procedure, shortened: as §1
# [12] = molecular target: Fuc(a1-2)Gal(b1-3)GlcNAc(b1-3)[Neu5Ac(a2-6)Gal(b1-4)GlcNAc(b1-6)]Gal(b1-4)Glc
# Procedure, shortened: as §1
# [13] = molecular target: Fuc(a1-2)Gal(b1-3)GlcNAc6S
# Procedure, shortened: as §1
# [14] = molecular target: Fuc(a1-2)Gal(b1-3)[Fuc(a1-4)]GlcNAc
# Procedure, shortened: as §1
# [15] = molecular target: Fuc(a1-2)Gal(b1-3)[Fuc(a1-4)]GlcNAc(b1-2)Man(a1-3)[Fuc(a1-2)Gal(b1-3)[Fuc(a1-4)]GlcNAc(b1-2)Man(a1-3)]Man(b1-4)GlcNAc(b1-4)GlcNAc
# Procedure, shortened: as §1
# [16] = molecular target: Fuc(a1-2)Gal(b1-3)[Fuc(a1-4)]GlcNAc(b1-2)Man(a1-3)[Fuc(a1-2)Gal(b1-3)[Fuc(a1-4)]GlcNAc(b1-2)Man(a1-6)]Man(b1-4)GlcNAc(b1-4)[Fuc(a1-6)]GlcNAc(b1-4)[Fuc(a1-6)]GlcNAc
# Procedure, shortened: as §1
# [17] = molecular target: Fuc(a1-2)Gal(b1-3)[Fuc(a1-4)]GlcNAc(b1-3)[Fuc(a1-3)[Gal(b1-4)]GlcNAc(b1-6)]Gal(b1-4)Glc
# Procedure, shortened: as §1
# [18] = molecular target: Fuc(a1-2)Gal(b1-3)[Fuc(a1-4)]GlcNAc(b1-3)[Gal(b1-4)GlcNAc(b1-6)]Gal(b1-4)Glc
# Procedure, shortened: as §1
# [19] = molecular target: Fuc(a1-2)Gal(b1-4)Fuc(a1-3)]GlcNAc(b1-2)Man(a1-3)[Fuc(a1-2)Gal(b1-4)[Fuc(a1-3)]GlcNAc(b1-2)Man(a1-6)]Man(b1-4)GlcNAc(b1-4)GlcNAc
# Procedure, shortened: as §1
# Fuc(a1-2)Gal(b1-4)Glc = molecular target: Fuc(a1-2)Gal(b1-4)Glc
# Procedure, shortened: as §1
# Fuc(a1-2)Gal(b1-4)Glc6S = molecular target: Fuc(a1-2)Gal(b1-4)Glc6S
# Procedure, shortened: as §1
# Fuc(a1-2)Gal(b1-4)GlcNAc = molecular target: Fuc(a1-2)Gal(b1-4)GlcNAc
# Procedure, shortened: as §1
# [20] = molecular target: Fuc(a1-2)Gal(b1-4)GlcNAc(b1-2)Man
# Procedure, shortened: as §1
# [21] = molecular target: Fuc(a1-2)Gal(b1-4)GlcNAc(b1-2)Man(a1-3)[Fuc(a1-2)Gal(b1-4)GlcNAc(b1-2)Man(a1-6)]Man(b1-4)GlcNAc(b1-4)GlcNAc
# Procedure, shortened: as §1
# [22] = molecular target: Fuc(a1-2)Gal(b1-4)GlcNAc(b1-2)Man(a1-3)[Fuc(a1-2)Gal(b1-4)GlcNAc(b1-2)Man(a1-6)]Man(b1-4)GlcNAc(b1-4)[Fuc(a1-6)]GlcNAc
# Procedure, shortened: as §1
# [23] = molecular target: Fuc(a1-2)Gal(b1-4)GlcNAc(b1-2)[Fuc(a1-2)Gal(b1-4)GlcNAc(b1-4)]Man(a1-3)[Fuc(a1-2)Gal(b1-4)GlcNAc(b1-2)Man(a1-6)]Man(b1-4)GlcNAc(b1-4)GlcNAc
# Procedure, shortened: as §1
# [24] = molecular target: Fuc(a1-2)Gal(b1-4)GlcNAc(b1-3)Gal(b1-4)GlcNAc
# Procedure, shortened: as §1
binder,measurement,setting,value
B1,glycan array binding signal (z-score),Fuc(a1-2)Gal,-0.177
same,glycan array binding signal (z-score),Fuc(a1-2)Gal(b1-3)GalNAc,-0.205
same,glycan array binding signal (z-score),[1],-0.201
same,glycan array binding signal (z-score),[2],0.475
same,glycan array binding signal (z-score),[3],-0.2
same,glycan array binding signal (z-score),[4],-0.207
same,glycan array binding signal (z-score),[5],-0.192
same,glycan array binding signal (z-score),Fuc(a1-2)Gal(b1-3)GlcNAc,-0.207
same,glycan array binding signal (z-score),[6],0.984
same,glycan array binding signal (z-score),[7],-0.085
same,glycan array binding signal (z-score),[8],-0.21
same,glycan array binding signal (z-score),[9],-0.262
same,glycan array binding signal (z-score),[10],-0.172
same,glycan array binding signal (z-score),[11],-0.258
same,glycan array binding signal (z-score),[12],-0.276
same,glycan array binding signal (z-score),[13],-0.174
same,glycan array binding signal (z-score),[14],-0.176
same,glycan array binding signal (z-score),[15],0.449
same,glycan array binding signal (z-score),[16],-0.143
same,glycan array binding signal (z-score),[17],-0.186
same,glycan array binding signal (z-score),[18],-0.223
same,glycan array binding signal (z-score),[19],-0.209
same,glycan array binding signal (z-score),Fuc(a1-2)Gal(b1-4)Glc,-0.118
same,glycan array binding signal (z-score),Fuc(a1-2)Gal(b1-4)Glc6S,-0.229
same,glycan array binding signal (z-score),Fuc(a1-2)Gal(b1-4)GlcNAc,-0.252
same,glycan array binding signal (z-score),[20],-0.12
same,glycan array binding signal (z-score),[21],0.091
same,glycan array binding signal (z-score),[22],0.523
same,glycan array binding signal (z-score),[23],-0.048
same,glycan array binding signal (z-score),[24],-0.211
